PubChem BioAssay AID686979 (National Center for Advancing Translational Sciences (NCATS), 2013)
The whole screen tested about 420,000 compounds, of which about 50,000 (12%) were called active. The shares of active, inactive and inconclusive entries below differ from those in the screen. Calls follow the shape of the dose curve; as a rule, active = well fitted inhibition curve with a large enough effect; inconclusive = small, poorly fitted or top-dose-only effect; inactive = flat fitted curve, though single readings scatter. Potencies of inconclusive entries are left out as doubtful fits.

Experiment: qHTS for Inhibitors of human tyrosyl-DNA phosphodiesterase 1 (TDP1): qHTS in cells in presence of CPT; also: nearly all actives have a fitted effect of over 55% in size
Details: chicken DT40 Tdp1-/-;hTDP1 cells + 20 nM CPT, ATP luminescence, 48 h; series mostly up to 46.2 µM
In short: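 Chicken DT40 Tdp1-/- cells stably complemented with human TDP1 were seeded at 400 cells/well in medium containing 20 nM camptothecin, exposed to pin-transferred compounds, and grown at 37 °C for at least 48 hr. Viability was read as ATP luminescence.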
Potency is read from the fitted curve at half-maximal effect; tags tell the direction and shape of the fitted curve.

Row | Compound | Potency
1 | CCOc1ccc(C(=O)Nc2c(C)nc(Nc3ccccc3)nc2Nc2ccccc2)cc1OCC | inconclusive [inhibitor, single point]
2 | COc1cc(/C=N/NC(=O)c2ccc(CN3C(=O)c4cccc5cccc3c45)cc2)cc(OC)c1O | active: 13 µM
3 | CCN(Cc1ccccc1)S(=O)(=O)c1ccc(S(=O)(=O)N2CCN(C)CC2)cc1 | inactive
4 | CCCCn1c(N)c(N(CCOC)C(=O)c2c(C)noc2C)c(=O)[nH]c1=O | inactive
5 | OC(COc1cc(Cl)c(Cl)cc1Cl)CN1CCN(c2ncccn2)CC1 (stereo not given) | active: 18.4 µM
6 | CN(CC(=O)Nc1cccc(S(=O)(=O)N2CCCCC2)c1)Cc1ccc(F)cc1 | inconclusive [inhibitor, single point]
7 | CC(OC(=O)c1ccc(O)cc1)C(=O)Nc1ccc(Oc2ccccc2)cc1 (stereo not given) | inconclusive [inhibitor, single point]
8 | COC(=O)/C(=C/c1c[nH]c2ccccc12)[N+](=O)[O-] | inactive
9 | Cc1cccc(N2CC(C(=O)Nc3ccc(S(=O)(=O)NCC4CCCO4)cc3)CC2=O)c1C (stereo not given) | inconclusive [inhibitor, single point]
10 | Cc1ccc(S(=O)(=O)N2CCOCC2)cc1NC(=O)CNCc1ccccn1 | inconclusive [inhibitor, single point]
11 | O=C(NC1CCCc2c1cnn2-c1ccccc1F)c1ccncc1 (stereo not given) | active: 10.3 µM
12 | CCOC(=O)c1c(N)sc2c(OCC)c(Br)ccc12 | inconclusive [inhibitor, partial curve]
13 | Cc1ccc(NC(=O)CCCN2C(=O)NC(C)(C)C2=O)cc1 | inactive
14 | O=C(NCc1ccncc1)Nc1ccccc1 | inactive
15 | Cc1ccc(C)c(OCCn2cc(/C=C(\C#N)C(=O)NCc3cccs3)c3ccccc32)c1 | inactive
16 | COc1cc(Cl)ccc1OC1(C)CCN(Cc2ccc(-c3ccccn3)cc2)C1 (stereo not given) | inconclusive [inhibitor, single point]
17 | CCn1c(SCc2ccc(C(=O)OC)o2)nc2sc3c(c2c1=O)CCCC3 | inconclusive [inhibitor, partial curve]
18 | S=c1[nH]nc(-c2ccc3ccccc3n2)n1-c1ccc(Cl)cc1 | inconclusive [inhibitor, single point]
19 | O=C(c1cccc(F)c1)N1CCC2(CC1)CN(c1ccc(-c3ccccc3)cc1)C2 | inconclusive [inhibitor, single point]
20 | COc1ccc(N2CCN(C(=O)C(=O)c3cn(CC(=O)N4CCCCCC4)c4ccccc34)CC2)cc1 | inconclusive [inhibitor, single point]
